# Results published in PubChem BioAssay (NCATS).
# “And” between values parts separate entries of the source, which are not always exact repeats. Equal values may be shown once. Inconclusive means that the source gave no clear call. Such entries were picked first, then a sample of the others. For part of these data: A potency beside an inconclusive call is a rough fit, not a confirmed value. The source made the active and inactive calls. Unless noted, the call rests on the fitted dose curve; in most records, active means well fitted curve in the direction sought with a large enough effect; inconclusive means small, poorly fitted or top-dose-only effect, or another doubt; inactive means no such curve, though single readings can be large; an effect the other way counts as inactive or inconclusive.
# How the values were obtained:
# [1] = P-glycoprotein substrates identified in KB-8-5-11 adenocarcinoma cell line, qHTS therapeutic library screen (AID 1346987); further: nearly all actives have a fitted effect of over 65% in size
# Summary of the method: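 Human cervical adenocarcinoma KB-8-5-11 cells, selected in colchicine to over-express P-gp and assayed without it, were exposed for 72 h to titrated compounds. An ATP-based luminescent viability signal gave AC50.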
# [2] = qHTS of pediatric cancer cell lines to identify multiple opportunities for drug repurposing: Primary screen for BT-37 cells (AID 1347094); further: potency means the concentration at half of the fitted maximal effect
# Summary of the method: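 Phenotypic viability qHTS, 48 h compound exposure, CellTiter-Glo luminescence read-out; multi-concentration dosing so that potency and efficacy derive directly from the primary screen's curves.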
# [3] = qHTS of pediatric cancer cell lines to identify multiple opportunities for drug repurposing: Primary screen for SK-N-SH cells (AID 1347098); settings: SK-N-SH viability, CellTiter-Glo luminescence, 48 h; series mostly up to 57 µM; further: potency means the concentration at half of the fitted maximal effect; nearly all actives have a fitted effect of over 65% in size
# Summary of the method: (§1)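 Cells (500-1,000/well) rested 5 h, then received compounds for 48 h; metabolically active cells were measured by CellTiter-Glo luminescence. Final concentrations spanned up to 46 µM (MIPE, 11-point) or 0.59 nM-46 µM (NPC, 8-point) in primary screens, 11-point in follow-ups.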
# [4] = qHTS of pediatric cancer cell lines to identify multiple opportunities for drug repurposing: Primary screen for BT-12 cells (AID 1347101); further: potency means the concentration at half of the fitted maximal effect; nearly all actives have a fitted effect of over 25% in size
# Summary of the method: as §1
# [5] = qHTS of pediatric cancer cell lines to identify multiple opportunities for drug repurposing: Primary screen for OHS-50 cells (AID 1347103); further: potency means the concentration at half of the fitted maximal effect; nearly all actives have a fitted effect of over 40% in size
# Summary of the method: as §1
# [6] = qHTS of pediatric cancer cell lines to identify multiple opportunities for drug repurposing: Primary screen for Rh30 cells (AID 1347107); further: nearly all actives have a fitted effect of over 75% in size
# Summary of the method: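 Viability after 48 h compound treatment at 37C, 500-1,000 cells/well, read as ATP luminescence with CellTiter-Glo. Primary screens used 11-point (MIPE, 0.78 nM-46 µM) or 8-point (NPC, 0.59 nM-46 µM) final concentrations; follow-up screens used 11-point dilutions.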
# [7] = Primary qHTS for small molecule stabilizers of the endoplasmic reticulum resident proteome: Secreted ER Calcium Modulated Protein (SERCaMP) assay (AID 1508630); settings: SH-SY5Y GLuc-SERCaMP (Gaussia luciferase released on ER calcium loss) secretion, thapsigargin, luminescence; series mostly up to 38.4 µM; further: potency means the concentration at half of the fitted maximal effect
# Summary of the method: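 The SH-SY5Y reporter protocol was run at 3 concentrations up to 38.3 uM (primary) or 11 concentrations (follow-up): 16 h compound, 100 nM thapsigargin for 4 h, then extracellular luciferase luminescence.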
# [8] = A High-Content qHTS Against Drug Library for the Identification of Small Molecules that Inhibit DYT1 Early Onset Primary Dystonia-Associated Cell Pathology (AID 1645839; calls by dose curve; further: potency means the concentration at half of the fitted maximal effect)
# Summary of the method: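 Cells were seeded and left for 24 h, then dosed with compound alongside tetracycline induction of mutant EGFP-TorsinA. They were incubated for 48 h, fixed in 4% paraformaldehyde, permeabilized and imaged for mislocalization (%pathology) and cell count.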
# [9] = biological target: Cytochrome P450 2D6 (Homo sapiens) (UniProt P10635); assay: Cytochrome P450 family 2 subfamily D member 6 (CYP2D6) small molecule antagonists: luciferase biochemical (cell-free) qHTS assay (AID 1645840; active means well fitted curve in the direction sought with a large enough effect in the repeat runs; inconclusive means weak or mixed curves; inactive means no such curve, though single readings can be large; an effect the other way counts as inactive or inconclusive; further: potency means the concentration at half of the fitted maximal effect; nearly all actives have a fitted effect of over 55% in size)
# Chain of UniProt P10635 (P10635 whole entry, looked up): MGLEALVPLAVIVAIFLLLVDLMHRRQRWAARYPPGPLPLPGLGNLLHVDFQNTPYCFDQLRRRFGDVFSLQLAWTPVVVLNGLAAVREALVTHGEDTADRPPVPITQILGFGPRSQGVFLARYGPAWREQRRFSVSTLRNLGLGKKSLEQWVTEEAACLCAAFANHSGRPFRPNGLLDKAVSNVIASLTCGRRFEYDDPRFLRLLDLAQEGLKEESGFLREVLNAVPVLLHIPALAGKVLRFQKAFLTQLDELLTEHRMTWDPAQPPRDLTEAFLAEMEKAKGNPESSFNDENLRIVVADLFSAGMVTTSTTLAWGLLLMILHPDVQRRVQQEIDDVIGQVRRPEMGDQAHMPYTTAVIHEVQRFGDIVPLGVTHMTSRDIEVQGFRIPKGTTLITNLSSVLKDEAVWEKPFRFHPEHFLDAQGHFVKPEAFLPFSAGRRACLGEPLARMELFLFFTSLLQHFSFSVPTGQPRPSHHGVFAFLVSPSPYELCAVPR
# Summary of the method: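 P450-Glo CYP2D6 system: proluciferin substrate converted by enzyme to luciferin, read by luminescence proportional to activity. Enzyme-substrate mix with compound 10 min at room temperature, then NADPH regeneration 1 h before detection reagent.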
# [10] = Primary qHTS for inhibitors of nuclear receptor binding SET domain protein 2 (NSD2) in an isogenic RCH-ACV NSD2 p.E1099K mutant (9B) (AID 1645876); further: potency means the concentration at half of the fitted maximal effect; nearly all actives have a fitted effect of over 70% in size
# [11] = Primary qHTS for inhibitors of nuclear receptor binding SET domain protein 2 (NSD2) in an RCH-ACV wild type WT cells (2C) (AID 1645877); settings: activity change, negative = cell killing: at 44.9 µM (top of the series); further: potency means the concentration at half of the fitted maximal effect; nearly all actives have a fitted effect of over 70% in size
# [12] = Quantitative High-Throughput drug screen in 47 multiple myeloma cell lines against the NCATS MIPE library collection: Delta47_JCRB cell viability assay (AID 1918925; further: nearly all actives have a fitted effect of over 45% in size)
# Summary of the method: (§2)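 Relative luminescence from CellTiter-Glo served as the viability signal, referenced to DMSO-treated (100%) and cell-free medium (0%) controls. Treatment lasted 48 hours at 37C with 500 cells per well.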
# [13] = Quantitative High-Throughput drug screen in 47 multiple myeloma cell lines against the NCATS MIPE library collection: AMO1_DSMZ cell viability assay (AID 1918927; further: potency means the concentration at half of the fitted maximal effect; nearly all actives have a fitted effect of over 30% in size)
# Summary of the method: as §2
# [14] = Quantitative High-Throughput drug screen in 47 multiple myeloma cell lines against the NCATS MIPE library collection: Karpas620_DSMZ cell viability assay (AID 1918959); further: potency means the concentration at half of the fitted maximal effect; nearly all actives have a fitted effect of over 30% in size
# Summary of the method: (§3)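 Steps: seed 500 cells per well; pin-transfer MIPE 4.0 library; incubate 48 h at 37C, 5% CO2, humidified; add CellTiter-Glo, 5 min room temperature; read luminescence.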
# [15] = Quantitative High-Throughput drug screen in 47 multiple myeloma cell lines against the NCATS MIPE library collection: KMM1_JCRB cell viability assay (AID 1918960); further: potency means the concentration at half of the fitted maximal effect; nearly all actives have a fitted effect of over 30% in size
# Summary of the method: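 Each line was plated at 500 cells/well and treated 48 h with library drugs. Viability came from CellTiter-Glo luminescence relative to DMSO and cell-free medium controls.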
# [16] = Quantitative High-Throughput drug screen in 47 multiple myeloma cell lines against the NCATS MIPE library collection: Karpas417_ECACC cell viability assay (AID 1918961); settings: Karpas417 myeloma viability, CellTiter-Glo ATP luminescence, 48 h; viability (% of DMSO): at 45.8 µM (top of the series); further: potency means the concentration at half of the fitted maximal effect
# Summary of the method: (§4)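 CellTiter-Glo luminescence (ATP) after 48 h compound exposure, 37C/5% CO2; 500 cells/well; MIPE 4.0 approved/investigational drugs pinned in; DMSO = 100%, media only = 0% viability.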
# [17] = Quantitative High-Throughput drug screen in 47 multiple myeloma cell lines against the NCATS MIPE library collection: KHM11_PLB cell viability assay (AID 1918962); settings: KHM11 myeloma cell viability, CellTiter-Glo ATP luminescence, 48 h; series mostly up to 45.8 µM; further: potency means the concentration at half of the fitted maximal effect; nearly all actives have a fitted effect of over 35% in size
# Summary of the method: as §3
# [18] = Quantitative High-Throughput drug screen in 47 multiple myeloma cell lines against the NCATS MIPE library collection: JIM1_ECACC cell viability assay (AID 1918964; further: potency means the concentration at half of the fitted maximal effect)
# Summary of the method: as §2
# [19] = Quantitative High-Throughput drug screen in 47 multiple myeloma cell lines against the NCATS MIPE library collection: INA6_PLB cell viability assay (AID 1918965; further: potency means the concentration at half of the fitted maximal effect; nearly all actives have a fitted effect of over 55% in size)
# Summary of the method: as §4
# [20] = Quantitative High-Throughput drug screen in 47 multiple myeloma cell lines against the NCATS MIPE library collection: KMS27_JCRB cell viability assay (AID 1918970); settings: KMS27 myeloma cells, CellTiter-Glo ATP viability, 48 h; viability (% of DMSO): at 45.8 µM (top of the series); further: potency means the concentration at half of the fitted maximal effect; nearly all actives have a fitted effect of over 30% in size
# Summary of the method: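 Each line is seeded at 500 cells per well and treated with library compounds for 48 hours under 37 °C, 5% CO2. CellTiter-Glo is then added for 5 min at room temperature before median relative luminescence is recorded.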
# [21] = Quantitative High-Throughput drug screen in 47 multiple myeloma cell lines against the NCATS MIPE library collection: KMS12PE_JCRB cell viability assay (AID 1918972)
# Summary of the method: as §4
# [22] = Quantitative High-Throughput drug screen in 47 multiple myeloma cell lines against the NCATS MIPE library collection: KMS20_JCRB cell viability assay (AID 1918973); settings: CellTiter-Glo ATP, 48 h; viability (% of DMSO): at 45.8 µM (top of the series); further: nearly all actives have a fitted effect of over 45% in size
# Summary of the method: as §2
# [23] = Quantitative High-Throughput drug screen in 47 multiple myeloma cell lines against the NCATS MIPE library collection: KMS21BM_JCRB cell viability assay (AID 1918974); settings: ATP luminescence, 48 h; viability: at 45.8 µM (top of the series); further: potency means the concentration at half of the fitted maximal effect
# Summary of the method: as §2
# [24] = Quantitative High-Throughput drug screen in 47 multiple myeloma cell lines against the NCATS MIPE library collection: KMS26_JCRB cell viability assay (AID 1918975); settings: KMS26 myeloma cells viability, CellTiter-Glo ATP, 48 h; viability (% of DMSO): at 45.8 µM (top of the series); further: potency means the concentration at half of the fitted maximal effect; nearly all actives have a fitted effect of over 45% in size
# Summary of the method: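 Approved and investigational drugs from MIPE 4.0 were added by pin tool to 500 cells per well. After 48 hours at 37C, ATP-based CellTiter-Glo luminescence indicated remaining viability.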
# Tags describe the fitted curve by direction and shape.
compound,measurement,setting,value
CN1C[C@H]2c3ccccc3Oc3ccc(Cl)cc3[C@@H]2C1,Potency,[1],inactive
same,Potency,[2],"inconclusive: 17.4 µM [cytotoxic, partial curve, poor fit]"
same,Potency,[3],"inconclusive: 13.7 µM [cytotoxic, partial curve]"
same,Potency,[4],"inconclusive: 19.5 µM [cytotoxic, partial curve, poor fit]"
same,Potency,[5],"inconclusive: 27.3 µM [cytotoxic, partial curve] and active: 21.9 µM"
same,Potency,[6],inactive
same,Potency,[7],"inconclusive: 28.2 µM [inhibitor, single point]"
same,Potency,[8],active: 11.2 µM
same,Potency,[9],active: 0.0062 µM
same,Potency,[10],"inconclusive: 33.5 µM [inhibitor, single point]"
same,Potency,[11],"inconclusive: 26.6 µM [inhibitor, single point]"
same,Potency,[12],inactive
same,Potency,[13],"inconclusive: 29.6 µM [cytotoxic, single point]"
same,Potency,[14],"inconclusive: 18.7 µM [cytotoxic, single point]"
same,Potency,[15],"inconclusive: 23.5 µM [cytotoxic, single point]"
same,Potency,[16],"inconclusive: 0.0296 µM [cytotoxic, full curve, poor fit]"
same,Potency,[17],inconclusive: 0.001 µM
same,Potency,[18],"inconclusive: 13.2 µM [cytotoxic, partial curve, poor fit]"
same,Potency,[19],"inconclusive: 3.72 µM [cytotoxic, full curve]"
same,Potency,[20],"inconclusive: 13.2 µM [cytotoxic, partial curve, poor fit]"
same,Potency,[21],"inconclusive: 0.0019 µM [rising, full curve, poor fit]"
same,Potency,[22],inactive
same,Potency,[23],"inconclusive: 0.0019 µM [rising, full curve, poor fit]"
same,Potency,[24],inconclusive: 0.001 µM [cytotoxic]
